Read counts are not given, so values of variants with three or more changes are uncertain.
B1: CPEB3 Ribozyme (parent)
chain: UAACAGGGGGCCACAGCAGAAGCGUUCACGUCGCAGCCCCUGUCAGAUUCUGGUGAAUCUGCGAAUUCUGCUGUAUAUCUC

Variants of: B1
Assay: self-cleavage, relative activity (ratio to wild type); higher = more cleavage; in vitro, sequencing
Method in brief: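 Libraries of CPEB3 self-cleaving ribozyme mutants came from rounds of error-prone PCR and carried barcodes, which DNA sequencing matched to variants. In vitro transcription used T7 RNA polymerase at 37°C for 5 hours, with a further 15 min in DNase I before EDTA stopped the reaction; the ribozymes cleaved during both steps. The RNA was reverse transcribed with template switching and sequenced on Illumina. Relative activity is the cleaved/total read fraction of a variant divided by that of the unmutated ribozyme, averaged over three batches with at least 5 reads.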

Variant | self-cleavage
A2G A13U U49C U66C U78A | 0.04
A2G A5G C40U U51C | 0.07
A2G C12U A64G U66C U74C U80C | 0.21
A2G A5G A13G A35U U78C | 0.38
A2G G8A A15G U26C U43A | 0.07
A2G A5C A13C A35G | 1.19
A2C A28G G61A | 0.51
A2G A5U U25C A45G U49C G55U | 0.33
A2G A15U U31C U51C A64G | 0.08
A2G G6A A18G U41C A56G U60A U67C | 0.06
A2G G9A U25C | 0.09
A2G G10A A47U A64U | 0.14
A2G A5U A15G U43C A45G A47U C79U | 0.17
A2G C4U A20G U72C | 1.13
A2G C4U A13U A28G U72A | 0.84
A2C A77G C81A | 1.19
A2G A5U A35G U48C C50U | 0.12
A2G A28U G33A U51C U78A | 0.24
A2G A20C A35U G42U U58A U69C U80C | 0.05
A2G C38U U58A A75G | 0.04
A2G A18U U41A U43C A45G | 0.41
A2G G9A A15U A18G A45G | 0.25
A2G G8A U49C U51C U80C | 0.04
A2G C11G A18U U60C | 0.21

Variant | self-cleavage
A2G A20G U54G | 0.62
A2G A5U U25C U26A U41C U76A | 0.66
A2G C23A C32U U51A U80A | 0.23
A2G G9A A15U A28G U67C U69A | 0.06
A2G C39U A45G A56G U69A A75U | 0.15
A2G A3G A18U U25C | 0.2
A2G G8A A45G U51A A57G | 0.23
A2G A15U U31C U41C | 0.43
A2G A3G A15G G53A U67G U78C | 0.39
A2G A15G U25A U41C G42U G55U A64G | 0.04
A2G A3U G55A A64G | 0.5
A2G G19C A28U G33U A75G U80C | 0.05
A2G A56G U76A | 0.65
A2G A13U A47G C62U U72A | 0.1
A2G G8A G16U U54G U67A | 0.06
A2G A5G C34G U78C U80C | 0.13
A2G A28U U41A U58C U80A | 0.04
A2G A57C A65U U80C | 0.26
A2G A64G U69C | 0.25
A2C C11G U25C U41A U78A | 0.52
A2G A3G A15U A20G C32U U48C U76G | 0.08
A2C A15G A35U U60A | 0.37
A2G C4G A28G U80C | 0.88
A2G A5G U54C U58G U60C G70A | 0.09

Variant | self-cleavage
A2G A35U U72A | 0.21
A2G A13G A65G | 0.13
A2G C11U A18U A35U U54G U69C | 0.03
A2G A15U A18G U60C | 0.04
A2G A13U C44U U60A A65G U66C U72A | 0.07
A2G A20G U67C | 0.66
A2G A47U A56G U69A | 0.08
A2G C14G C34G A45G U48C A57G U66C | 0.04
A2G G8A U51G G53A G63U U76C | 0.13
A2G G7U C17U U26C U43C U67A | 0.22
A2G A5G U25C | 0.47
A2C U25C A28U U43C C62U | 0.21
A2G A13G C59A | 0.24
A2G G9A A28U U67C C68U U69A C71A | 0.03
A2G A35G G42A A56G | 0.26
A2G C11G A45U U76C | 0.35
A2G A15U U25C C29A U74C | 0.07
A2G A20U U60C U76C | 0.19
A2G C11A U67A | 0.3
A2G A21G U31A C34U | 0.07
A2G G6A U41C A64U | 0.35
A2G A45G U49A | 0.42
A2G A5G C40U U54C | 0.03
A2G A65G U72C | 0.12

Variant | self-cleavage
A2G A5G A21G G52U | 0.79
A2G A15G A65G U66C A75G | 0.21
A2G G9U A77G | 0.1
A2G A18G U41C A57G U58C | 0.15
A2G A35U U66C | 0.12
A2G A35U U58C U69A U76C | 0.09
A2G G9A U41C A65U U67A U78C | 0.11
A2G A18U U25C A35U U41C G63C A64G | 0.08
A2G G19A G24C U48C A56U | 0.06
A2G A15G A35G U54C U69A | 0.52
A2G A56U U72C | 0.37
A2G A21G A64G U67C U72C | 0.09
A2G A3G A18U | 0.41
A2G A56G U60C | 0.14
A2G A3U C27A C38A G42A | 0.23
A2G A28C A75U | 0.46
A2G A3G A5U U54C U78A | 1.16
A2G A5G U43C U48A G63U | 0.11
A2G A5G C11U A28G U66C C79G | 0.24
A2C U49G A56U G61A U78A | 0.27
A2G A3G C11U A13U U25C U41C | 0.06
A2G A5U G8A A45G | 0.45
A2G A5C A21G | 0.6
A2G G6C U41C A47G A64G U67C U78A | 0.36

Variant | self-cleavage
A2G A18G A28G C29U | 0.38
A2G C14U U26C G46A U54A A56G U60C | 0.07
A2G A13U A35G U54C U72G | 0.58
A2C U31A U51C A64G U67C | 0.11
A2G A5G A21G U76A | 0.15
A2G A18G A20U U60A | 0.19
A2G G7A A28G | 0.05
A2G A35C U66C | 0.35
A2G A57G U66C | 0.25
A2G A64G U67A U69A | 0.24
A2G A15G A18G A35U A57G | 0
A2G A47G U48C U60A U80C | 0.06
A2G A21G U26C A47G U48C | 0.34
A2G C12G C27A G33A | 0.07
A2G G8A A15G U25C U74A | 0.02
A2C C23A U26C A64U | 0.08
A2G A5U U31C U54A A57G U60C U74C | 0.38
A2G A15G U41C U51G U69A | 0.46
A2G G7A A45G A47U | 0.06
A2G C40G U43A U69A A75G | 0.17
A2C A28G A56G | 0.56
A2G A15U U26C U51C U69C | 0.28
A2G G6A A28G G33A U69C U74G | 0.09
A2G A13U U51C U66C | 0.22

Variant | self-cleavage
A2G A5G C29U U54C C59A U76C | 0.05
A2G A5U G10U A56G U58A U60C | 0.03
A2G A5G U43C U48C | 0.52
A2C U31A U67A | 0.53
A2G A18G C44U U49A U69A | 0.25
A2C C11G U41A U76A U78A | 0.05
A2G A5G U26C C29U A56G | 0.43
A2G A13G U51A U54G A64U U72C | 0.08
A2G A18U U43C U60C U72A | 0.05
A2G A5C A15G A21G A45U | 0.64
A2G A35G U41A A47U U48A U49A U67C | 0.25
A2G A47G U54G U76C | 0.39
A2G A13G A15G U67C G70U | 0.04
A2G A3G A13U A15U A35U G46A | 0.49
A2G C29A U48A A64G U74C | 0.15
A2G A35U A56G | 0.6
A2G A21G A28U A64G | 0.35
A2G A5U G9A A15U A21G A28C A75U | 0.05
A2C U51C A57G | 0.2
A2G A3G A15U G33A U41A | 0.34
A2G C44G A57G U69C U76C | 0
A2G G10U U51A U58C U69C | 0.06
A2G C4U U26A U66C U69C | 0.5
A2G A15C A21G U72C U78C | 0.22

Variant | self-cleavage
A2G C32U G63A U72C | 0.31
A2G C12U U31A U41A | 0.25
A2G C4U A35U G42A U66A U72C | 0.08
A2G A15G U26A A56G | 0.36
A2G G22C U54G | 0.38
A2C A28U G33U | 0.1
A2G C4U A13G A20U U54C U78C U80C | 0.42
A2G C11G U54C A64U U74C U76C | 0.1
A2G A13C A20G U26C A47G A64G U80C | 0.35
A2G A15G A47U U60C G61A | 0.11
A2G C14U A28C A57G U58C G63U | 0.09
A2G C12G G42A C44A U60A U67A | 0.13
A2G A3G C12U A15U U31C U51C | 0.14
A2G C14U A45G U58C | 0.34
A2G C32U A45G U51C | 0.03
A2G A13U U43G C44U A45G A64G | 0.07
A2G A5U A13G C37G U48C | 0.03
A2C A21G U41A U51A U67A U69C U72A | 0.12
A2G A3G G16A | 0.75
A2G G10A U26C U31A A57G | 0.02
A2G A28U U76A | 0.38
A2G A35U U74C | 0.43
A2G A5G A45C A64G U69C | 0.19
